Laboratory results reported in article PMC9911399, “Two distinct binding modes provide the RNA-binding protein RbFox with extraordinary sequence specificity”.
Substitutions are numbered along the chain they refer to; changes in the protein carry UniProt numbers. This is one part of the list.

T1: RBFOX1 RRM (Homo sapiens, UniProt Q9NWB1 109-208)
T1 sequence: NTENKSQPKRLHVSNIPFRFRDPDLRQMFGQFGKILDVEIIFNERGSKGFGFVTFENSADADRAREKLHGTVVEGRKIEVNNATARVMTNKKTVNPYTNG

B1: CAGCUCA (DNA:RNA)
RNA: GGGAGACCGGAAUUCAGAUUGUCCCAGCUCAUUAAAUCCCGUCGUAGCCACCA
DNA 1: CAATCTGAATTCCGGTCTCCC
DNA 2: TGGTGGCTACGACGGGATT
B2: UAGUCCU (DNA:RNA)
RNA: B1 RNA with C25U, C28U, U29C, A31U
DNA 1: CAATCTGAATTCCGGTCTCCC
DNA 2: TGGTGGCTACGACGGGATT
B3: GACGGCC (DNA:RNA)
RNA: B1 RNA with C25G, G27C, C28G, U29G, A31C
DNA 1: CAATCTGAATTCCGGTCTCCC
DNA 2: TGGTGGCTACGACGGGATT
B4: CACUCGU (DNA:RNA)
RNA: B1 RNA with G27C, C28U, U29C, C30G, A31U
DNA 1: CAATCTGAATTCCGGTCTCCC
DNA 2: TGGTGGCTACGACGGGATT
B5: UCCAGAU (DNA:RNA)
RNA: GGGAGACCGGAAUUCAGAUUGUCCUCCAGAUUUAAAUCCCGUCGUAGCCACCA
DNA 1: CAATCTGAATTCCGGTCTCCC
DNA 2: TGGTGGCTACGACGGGATT
B6: UAACGGA (DNA:RNA)
RNA: B1 RNA with C25U, G27A, U29G, C30G
DNA 1: CAATCTGAATTCCGGTCTCCC
DNA 2: TGGTGGCTACGACGGGATT
B7: CAACAGC (DNA:RNA)
RNA: B1 RNA with G27A, U29A, C30G, A31C
DNA 1: CAATCTGAATTCCGGTCTCCC
DNA 2: TGGTGGCTACGACGGGATT
B8: CAACGCG (DNA:RNA)
RNA: B1 RNA with G27A, U29G, A31G
DNA 1: CAATCTGAATTCCGGTCTCCC
DNA 2: TGGTGGCTACGACGGGATT
B9: UGGGUGG (DNA:RNA)
RNA: B1 RNA with C25U, A26G, C28G, C30G, A31G
DNA 1: CAATCTGAATTCCGGTCTCCC
DNA 2: TGGTGGCTACGACGGGATT
B10: CAUAGGC (DNA:RNA)
RNA: B1 RNA with G27U, C28A, U29G, C30G, A31C
DNA 1: CAATCTGAATTCCGGTCTCCC
DNA 2: TGGTGGCTACGACGGGATT
B11: GCUAGAU (DNA:RNA)
RNA: B5 RNA with U25G, C27U
DNA 1: CAATCTGAATTCCGGTCTCCC
DNA 2: TGGTGGCTACGACGGGATT
B12: AAGUAGA (DNA:RNA)
RNA: B1 RNA with C25A, C28U, U29A, C30G
DNA 1: CAATCTGAATTCCGGTCTCCC
DNA 2: TGGTGGCTACGACGGGATT
B13: AUCAGUA (DNA:RNA)
RNA: B5 RNA with U25A, C26U, A30U, U31A
DNA 1: CAATCTGAATTCCGGTCTCCC
DNA 2: TGGTGGCTACGACGGGATT
B14: GUUCAAG (DNA:RNA)
RNA: B1 RNA with C25G, A26U, G27U, U29A, C30A, A31G
DNA 1: CAATCTGAATTCCGGTCTCCC
DNA 2: TGGTGGCTACGACGGGATT
B15: UACGUUU (DNA:RNA)
RNA: B5 RNA with C26A, A28G, G29U, A30U
DNA 1: CAATCTGAATTCCGGTCTCCC
DNA 2: TGGTGGCTACGACGGGATT
B16: CGGUAAC (DNA:RNA)
RNA: B1 RNA with A26G, C28U, U29A, C30A, A31C
DNA 1: CAATCTGAATTCCGGTCTCCC
DNA 2: TGGTGGCTACGACGGGATT
B17: AUGGCUA (DNA:RNA)
RNA: B1 RNA with C25A, A26U, C28G, U29C, C30U
DNA 1: CAATCTGAATTCCGGTCTCCC
DNA 2: TGGTGGCTACGACGGGATT
B18: CGGGUUC (DNA:RNA)
RNA: B1 RNA with A26G, C28G, C30U, A31C
DNA 1: CAATCTGAATTCCGGTCTCCC
DNA 2: TGGTGGCTACGACGGGATT
B19: UCAAGGC (DNA:RNA)
RNA: B5 RNA with C27A, A30G, U31C
DNA 1: CAATCTGAATTCCGGTCTCCC
DNA 2: TGGTGGCTACGACGGGATT
B20: CACAAUG (DNA:RNA)
RNA: B1 RNA with G27C, C28A, U29A, C30U, A31G
DNA 1: CAATCTGAATTCCGGTCTCCC
DNA 2: TGGTGGCTACGACGGGATT

Each binder was assayed against T1, RBFOX1 RRM (assay: EMSA; HiTS-Eq, 1 nM pool, 10 min; buffer printed only for the single-RNA assays: 10 mM Tris pH 7.5, 150 mM NaCl, 3.4 mM EDTA, 0.001% NP-40, 30 C). Conditions: tags: His6 N-terminal (pET28a); label: 5' 32P.
Procedure, shortened: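 Relative association constants, normalised to the cognate motif, were derived by comparing read counts of each RNA species with those of the control reaction. The RNA sequenced was the free fraction, separated by 8% native PAGE after a 10 min equilibration in 50 µL of 1 nM 5′-radiolabelled RNA (7 randomized nucleotides) with increasing concentrations of purified wild-type or mutant RbFox RRM.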

Row | Binder | binding signal
1 | B1 | 0.00282 KA relative to UGCAUGU
2 | B2 | 0.00776 KA relative to UGCAUGU
3 | B3 | 0.0213 KA relative to UGCAUGU
4 | B4 | 0.00448 KA relative to UGCAUGU
5 | B5 | 0.00713 KA relative to UGCAUGU
6 | B6 | 0.000926 KA relative to UGCAUGU
7 | B7 | 0.00195 KA relative to UGCAUGU
8 | B8 | 0.00329 KA relative to UGCAUGU
9 | B9 | 0.0279 KA relative to UGCAUGU
10 | B10 | 0.0055 KA relative to UGCAUGU
11 | B11 | 0.0161 KA relative to UGCAUGU
12 | B12 | 0.00677 KA relative to UGCAUGU
13 | B13 | 0.00411 KA relative to UGCAUGU
14 | B14 | 0.0125 KA relative to UGCAUGU
15 | B15 | 0.0131 KA relative to UGCAUGU
16 | B16 | 0.00696 KA relative to UGCAUGU
17 | B17 | 0.0119 KA relative to UGCAUGU
18 | B18 | 0.0418 KA relative to UGCAUGU
19 | B19 | 0.00829 KA relative to UGCAUGU
20 | B20 | 0.00478 KA relative to UGCAUGU
